Experimental data taken from PubChem BioAssay (Tox21).
This list was built around the results that the source calls inconclusive (neither active nor inactive); the mix of calls is not that of the screen. For part of these data: Potencies of inconclusive entries are left out as doubtful fits. Activity calls are given as the source filed them. Unless noted, calls come from the whole dose curve; as a rule, active = well fitted curve in the direction sought with a large enough effect in the repeat runs; inconclusive = weak or mixed curves; inactive = no such curve, though single readings can be large; an effect the other way counts as inactive or inconclusive.

How the values were obtained:
[1] = qHTS assay to identify small molecule antagonists of the androgen receptor (AR) signaling pathway using the MDA cell line - cell viability counter screen (AID 743041; note: nearly all actives have a fitted effect of over 45% in size; note: potency is the fitted concentration of half-maximal effect; for viability change, negative = cytotoxic: % is set by controls: 0 for no effect and ±100 for the full control effect); settings: MDA-kb2 viability, CellTiter-Fluor, 16 h, cells co-treated with R1881 androgen agonist; viability change, negative = cytotoxic: at 70.3 µM (top of the series)
Method in brief: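 MDA-kb2 AR-luc human breast carcinoma cells (MMTV-luciferase, AR/GR responsive) were treated with compounds plus R1881 agonist for 16 h at 37 °C. Viability was read as CellTiter-Fluor fluorescence in the same wells as the reporter assay.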

[2] = A CellTox Green Cytotoxicity Assay to monitor cytotoxicity in HEK293 cells - 32 hour (AID 1224881); note: nearly all actives have a fitted effect of over 40% in size; note: potency is the fitted concentration of half-maximal effect
Method in brief: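 Seeding of HEK293 cells together with cytotoxicity dye preceded a 5 h incubation at 37 C/5% CO2. Test compounds in DMSO were then added and fluorescence monitored across 40 h.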

[3] = qHTS RealTime-Glo MT Cell Viability Assay in HEK293 cells - 8 hour (AID 1224887); note: nearly all actives have a fitted effect of over 50% in size; note: potency is the fitted concentration of half-maximal effect
Method in brief: (§1)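 Tox21 screen in HEK293 using RealTime-Glo MT chemistry, with cells and reagent co-dispensed. Luminescence proportional to viable cell number was captured at intervals during 40 h compound exposure at 37 C.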

[4] = biological target: Estrogen receptor beta (Homo sapiens) (UniProt Q92731); assay: qHTS assay to identify small molecule antagonists of the estrogen receptor beta (ER-beta) signaling pathway (AID 1259378; active = well fitted inhibition curve with a large enough effect in the signal ratio in the repeat runs, not every such curve was filed as active; inconclusive = weak or mixed curves, or effect the other way; inactive = no such curve, though single readings can be large or run the other way; the % refers to the signal ratio; note: potency is the fitted concentration of half-maximal effect; for activity, negative = inhibition: % is set by controls: 0 for no effect and ±100 for the full control effect); settings: ER-beta-UAS-bla HEK293T, beta-lactamase FRET ratio, 16 h; activity, negative = inhibition: at 92.4 µM (top of the series) unless noted
Method in brief: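 ER-beta-UAS-bla HEK293T (GripTite) cells in 2% charcoal-stripped FBS medium were preincubated 6 hr at 37C, dosed with compound, then stimulated with 1 nM E2 (final) for 16 hr; beta-lactamase reporter read by B/G FRET fluorescence after 2 hr substrate loading.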

[5] = qHTS assay to identify small molecule antagonists of the estrogen receptor beta (ER-beta) signaling pathway - cell viability counter screen (AID 1259382); note: nearly all actives have a fitted effect of over 55% in size; note: potency is the fitted concentration of half-maximal effect
Method in brief: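 Agonist-stimulated (1nM E2) ER-beta-UAS-bla HEK293T cells are incubated with library compounds for 16 hr at 37C. Cell viability is then assessed in the reporter-assay wells by adding CellTiter-Glo and reading luminescence after 30 min.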

[6] = Human pregnane X receptor (PXR) small molecule agonists, qHTS cell viability counter screen (AID 1346977); note: nearly all actives have a fitted effect of over 50% in size; note: potency is the fitted concentration of half-maximal effect
Method in brief: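 After a 5hr pre-incubation, PXR-Luc HepG2 cells received compounds plus positive control in DMSO and were kept 24hr at 37C. Cell viability was quantified by fluorescence from CellTiter-Fluor added for the final hour.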

[7] = biological target: Estrogen receptor (Homo sapiens) (UniProt P03372); assay: qHTS assay to identify small molecule antagonists of the estrogen receptor alpha (ER-alpha) signaling pathway (AID 743069; active = well fitted curve in the direction sought with a large enough effect in the signal ratio in the repeat runs, not every such curve was filed as active; inconclusive = weak or mixed curves, or effect the other way; inactive = no such curve, though single readings can be large or run the other way; the % refers to the signal ratio; note: % is set by controls: 0 for no effect and ±100 for the full control effect); settings: HEK293 ER-alpha-UAS-bla, beta-lactamase ratio, antagonist mode; activity, negative = inhibition: at 69.4 µM (top of the series) unless noted
Method in brief: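 HEK293 cells stably carrying an ER-alpha-UAS-bla beta-lactamase reporter were pre-cultured overnight in 2% charcoal-stripped FBS medium. Test compounds in DMSO were added together with 17beta-estradiol for 18 hr at 37C. Read-out was fluorescence after 2 hr with LiveBLAzer B/G FRET substrate at room temperature.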

[8] = biological target: Thyrotropin receptor (Homo sapiens) (UniProt P16473); assay: qHTS assay to identify small molecule antagonists of the thyroid stimulating hormone receptor (TSHR) signaling pathway (AID 1259385; calls by dose curve; note: nearly all actives have a fitted effect of over 20% in size; note: potency is the fitted concentration of half-maximal effect); settings: TSHR-HEK293 cAMP HTRF, TSH-stimulated antagonist mode; activity change, negative = inhibition: at 92.4 µM (top of the series) unless noted
Method in brief: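 TSHR-HEK293 cells were plated and held 18 h at 37C/5% CO2, then given compound plus Ro20-1724 and stimulated with TSH at 1.5 ng/mL final. After 30 min at room temperature, cAMP was detected with cAMP-d2/anti-cAMP-cryptate (1 h) by fluorescence.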

[9] = qHTS assay to identify small molecule agonists of the sonic hedgehog signaling (Shh) pathway - cell viability counter screen (AID 1259366); note: % is set by controls: 0 for no effect and ±100 for the full control effect; nearly all actives have a fitted effect of over 50% in size
Method in brief: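 Fluorescence from CellTiter-Fluor reports live cells in this counter screen. NIH/3T3-derived Gli1-Luc reporter cells receive test compounds for 24hr at 37C; reagent goes in at 23hr.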

[10] = qHTS assay to identify small molecule agonists of the TGF-beta/Smad signaling pathway (AID 1346859; active = well fitted activation curve with a large enough effect in the signal ratio in the repeat runs, not every such curve was filed as active; inconclusive = weak or mixed curves; the % refers to the signal ratio; note: % is set by controls: 0 for no effect and ±100 for the full control effect)
Method in brief: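 Beta-lactamase reporter activity downstream of Smad binding elements was measured in stably transfected HEK 293T cells; compounds were incubated for 5 hr, substrate for 2 hr at room temperature.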

[11] = biological target: Voltage-gated inwardly rectifying potassium channel KCNH2 (Homo sapiens) (UniProt Q12809); assay: Human Ether-a-go-go-Related Gene (hERG) channel small molecule antagonists: fluorescence cell-based qHTS assay (AID 1671200); note: nearly all actives have a fitted effect of over 50% in size; note: potency is the fitted concentration of half-maximal effect
Method in brief: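 Cell line hERG-U2OS; dye FluxOR II, 1 h RT dark; Tl+ stimulus; ex 480/em 540 nm, read each second for 2 min.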

[12] = biological target: Androgen receptor (Homo sapiens) (UniProt P10275); assay: qHTS assay to identify small molecule antagonists of the androgen receptor (AR) signaling pathway (AID 743035; active = well fitted inhibition curve with a large enough effect in the signal ratio in the repeat runs, not every such curve was filed as active; inconclusive = weak or mixed curves, or effect the other way; inactive = no such curve, though single readings can be large or run the other way; the % refers to the signal ratio; note: potency is the fitted concentration of half-maximal effect); settings: HEK293 AR-UAS-bla, R1881-stimulated, beta-lactamase FRET, 16 h; activity change, negative = inhibition: at 58.5 µM (top of the series) unless noted
Method in brief: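 Using qHTS, AR-UAS-bla GripTite HEK293 cells received compound, then R1881, and were cultured 16 h at 37C/5% CO2 before a 2 h room-temperature LiveBLAzer B/G FRET substrate step and fluorescence measurement.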

[13] = qHTS assay to identify small molecule agonists of the vitamin D receptor (VDR) signaling pathway - cell viability counter screen (AID 743224)
Method in brief: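 Here cell health was gauged by luminescent ATP detection (CellTiter-Glo, 30 min RT) in VDR-bla cells that had been incubated with test compounds for 16 h at 37C and 5% CO2.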

[14] = qHTS RealTime-Glo MT Cell Viability Assay in HEK293 cells - 16 hour (AID 1224872); note: nearly all actives have a fitted effect of over 50% in size; note: potency is the fitted concentration of half-maximal effect
Method in brief: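 HEK293 cells seeded with NanoLuc/prosubstrate reagent, rested 5 h at 37 C, then dosed and kept at 37 C up to 40 h. Nonlytic real-time luminescence from viable cells read at 0, 8, 16, 24, 32 and 40 h.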

[15] = A CellTox Green Cytotoxicity Assay to monitor cytotoxicity in HepG2 cells - 40 hour (AID 1224879); note: nearly all actives have a fitted effect of over 40% in size; note: potency is the fitted concentration of half-maximal effect
Method in brief: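 Nonlytic assay: viable cells exclude the dye, so fluorescence scales with cell death. HepG2 at 600 cells/well, compounds added after 5 h, signal read across 40 h.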

[16] = biological target: Cytochrome P450 3A4 (Homo sapiens) (UniProt P08684); assay: Cytochrome P450 Family 3 Subfamily A Member 4 (CYP3A4) small molecule antagonists: luciferase reporter qHTS assay (AID 1671201)
Method in brief: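 Room-temperature assay throughout: 10 min compound–enzyme/substrate preincubation, 1 h reaction after NADPH regeneration solution, 20 min detection. Luciferin formed from proluciferin substrate is quantified by luminescence.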

[17] = qHTS assay to identify small molecule antagonists of the estrogen receptor alpha (ER-alpha) signaling pathway using the BG1 cell line (AID 743080; calls by dose curve;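 note: BG1 cells stimulated with 17beta-estradiol alongside compound; nearly all actives have a fitted effect of over 25% in size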; note: potency is the fitted concentration of half-maximal effect); settings: BG1Luc4E2 ERE-luciferase antagonist mode, luminescence; activity change, negative = inhibition: at 70.3 µM (top of the series) unless noted
Method in brief: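 BG1-Luc-4E2 cells (endogenous full-length ER-alpha, 4xERE luciferase) hormone-starved 5 days in charcoal-stripped FBS, plated 4,000/well for 24 h, then compound plus 17beta-estradiol for 21.5 h at 37 C; ONE-Glo luminescence read.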

[18] = qHTS assay to identify small molecule antagonists of the vitamin D receptor (VDR) signaling pathway - cell viability counter screen (AID 743225); settings: VDR-bla HEK293T viability, CellTiter-Glo luminescence, 16 h; viability change, negative = cytotoxic: at 61 µM (top of the series) unless noted
Method in brief: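 Luminescent cell viability (CellTiter-Glo) in VDR-bla HEK 293T cells after 16 h compound exposure at 37C in the presence of 3 nM final 1-alpha,25-dihydroxy vitamin D3.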

[19] = qHTS RealTime-Glo MT Cell Viability Assay in HEK293 cells - 40 hour (AID 1224874); settings: RealTime-Glo luminescence; max response: active compounds read low
Method in brief: as §1
Tags give direction and shape of the fitted curve or compound fluorescence and quenching.

Sequence of UniProt P16473 (P16473 whole entry, looked up): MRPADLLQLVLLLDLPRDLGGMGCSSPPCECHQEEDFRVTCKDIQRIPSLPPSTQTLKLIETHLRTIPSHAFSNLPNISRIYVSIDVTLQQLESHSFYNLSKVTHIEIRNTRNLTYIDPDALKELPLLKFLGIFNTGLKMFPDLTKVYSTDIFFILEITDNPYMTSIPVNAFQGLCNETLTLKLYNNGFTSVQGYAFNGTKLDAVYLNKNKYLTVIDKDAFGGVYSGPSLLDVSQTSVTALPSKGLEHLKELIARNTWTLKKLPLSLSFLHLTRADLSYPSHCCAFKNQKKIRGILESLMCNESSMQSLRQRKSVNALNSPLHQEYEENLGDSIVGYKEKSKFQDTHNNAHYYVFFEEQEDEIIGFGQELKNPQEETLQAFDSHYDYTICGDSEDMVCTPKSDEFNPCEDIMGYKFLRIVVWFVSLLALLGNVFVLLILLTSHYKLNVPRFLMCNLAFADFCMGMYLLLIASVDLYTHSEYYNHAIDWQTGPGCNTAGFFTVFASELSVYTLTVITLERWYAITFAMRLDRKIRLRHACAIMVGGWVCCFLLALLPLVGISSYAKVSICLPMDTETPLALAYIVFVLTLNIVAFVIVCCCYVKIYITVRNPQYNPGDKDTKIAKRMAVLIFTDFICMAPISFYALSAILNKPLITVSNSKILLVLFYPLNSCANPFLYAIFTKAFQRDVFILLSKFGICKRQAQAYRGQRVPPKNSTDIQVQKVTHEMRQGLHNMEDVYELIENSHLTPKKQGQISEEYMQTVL
Sequence of UniProt Q92731 (Q92731 whole entry, looked up): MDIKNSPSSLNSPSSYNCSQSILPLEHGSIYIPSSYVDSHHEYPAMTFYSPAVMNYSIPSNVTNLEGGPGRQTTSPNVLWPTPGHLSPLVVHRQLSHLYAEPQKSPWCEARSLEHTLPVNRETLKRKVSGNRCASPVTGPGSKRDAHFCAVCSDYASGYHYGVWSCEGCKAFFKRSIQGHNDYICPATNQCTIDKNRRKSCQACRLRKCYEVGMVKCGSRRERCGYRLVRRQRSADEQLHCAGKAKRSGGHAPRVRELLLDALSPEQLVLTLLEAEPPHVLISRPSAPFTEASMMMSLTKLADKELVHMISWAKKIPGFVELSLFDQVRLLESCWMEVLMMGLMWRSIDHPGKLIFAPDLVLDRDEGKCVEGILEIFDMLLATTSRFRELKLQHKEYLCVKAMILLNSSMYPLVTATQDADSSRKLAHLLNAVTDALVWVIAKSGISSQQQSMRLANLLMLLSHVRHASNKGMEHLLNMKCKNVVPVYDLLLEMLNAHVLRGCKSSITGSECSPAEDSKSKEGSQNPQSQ
Sequence of UniProt P10275 (P10275 whole entry, looked up): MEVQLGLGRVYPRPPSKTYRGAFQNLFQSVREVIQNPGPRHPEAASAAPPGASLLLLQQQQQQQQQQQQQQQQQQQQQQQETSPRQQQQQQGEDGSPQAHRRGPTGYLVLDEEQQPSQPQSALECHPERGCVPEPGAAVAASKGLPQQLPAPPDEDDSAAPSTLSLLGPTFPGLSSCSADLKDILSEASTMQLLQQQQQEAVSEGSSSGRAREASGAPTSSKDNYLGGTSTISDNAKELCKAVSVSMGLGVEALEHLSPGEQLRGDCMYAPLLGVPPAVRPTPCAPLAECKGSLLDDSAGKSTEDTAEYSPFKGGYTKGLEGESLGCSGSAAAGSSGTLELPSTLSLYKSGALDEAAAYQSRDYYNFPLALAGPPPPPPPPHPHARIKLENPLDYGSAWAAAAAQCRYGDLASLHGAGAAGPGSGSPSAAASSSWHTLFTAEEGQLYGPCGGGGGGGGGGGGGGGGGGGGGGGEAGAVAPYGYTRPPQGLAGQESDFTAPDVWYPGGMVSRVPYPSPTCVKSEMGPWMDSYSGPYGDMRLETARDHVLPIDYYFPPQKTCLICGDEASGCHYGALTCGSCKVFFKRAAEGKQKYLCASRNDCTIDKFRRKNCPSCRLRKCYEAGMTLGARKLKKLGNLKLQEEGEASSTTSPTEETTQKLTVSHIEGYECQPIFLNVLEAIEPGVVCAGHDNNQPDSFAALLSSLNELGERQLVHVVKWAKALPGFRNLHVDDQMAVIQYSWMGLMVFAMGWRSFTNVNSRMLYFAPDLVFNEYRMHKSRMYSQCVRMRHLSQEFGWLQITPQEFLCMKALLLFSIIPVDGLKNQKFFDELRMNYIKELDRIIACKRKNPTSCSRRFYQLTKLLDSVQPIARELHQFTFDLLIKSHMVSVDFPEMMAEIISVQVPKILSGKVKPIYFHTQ
Sequence of UniProt P08684 (P08684 whole entry, looked up): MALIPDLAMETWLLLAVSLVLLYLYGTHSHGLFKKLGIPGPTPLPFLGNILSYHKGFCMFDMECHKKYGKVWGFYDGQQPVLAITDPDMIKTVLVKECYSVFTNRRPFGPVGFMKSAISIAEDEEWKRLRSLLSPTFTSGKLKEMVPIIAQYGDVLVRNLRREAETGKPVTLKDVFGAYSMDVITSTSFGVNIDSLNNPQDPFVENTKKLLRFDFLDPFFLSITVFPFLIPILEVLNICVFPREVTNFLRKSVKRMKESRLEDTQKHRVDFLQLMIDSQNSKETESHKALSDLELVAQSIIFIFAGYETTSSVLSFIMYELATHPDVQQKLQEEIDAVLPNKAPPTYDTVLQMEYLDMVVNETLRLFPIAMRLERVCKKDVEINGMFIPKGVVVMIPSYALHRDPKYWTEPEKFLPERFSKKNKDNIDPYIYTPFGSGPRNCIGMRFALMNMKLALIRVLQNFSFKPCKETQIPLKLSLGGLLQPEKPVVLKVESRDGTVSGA
Sequence of UniProt Q12809 (Q12809 whole entry, looked up): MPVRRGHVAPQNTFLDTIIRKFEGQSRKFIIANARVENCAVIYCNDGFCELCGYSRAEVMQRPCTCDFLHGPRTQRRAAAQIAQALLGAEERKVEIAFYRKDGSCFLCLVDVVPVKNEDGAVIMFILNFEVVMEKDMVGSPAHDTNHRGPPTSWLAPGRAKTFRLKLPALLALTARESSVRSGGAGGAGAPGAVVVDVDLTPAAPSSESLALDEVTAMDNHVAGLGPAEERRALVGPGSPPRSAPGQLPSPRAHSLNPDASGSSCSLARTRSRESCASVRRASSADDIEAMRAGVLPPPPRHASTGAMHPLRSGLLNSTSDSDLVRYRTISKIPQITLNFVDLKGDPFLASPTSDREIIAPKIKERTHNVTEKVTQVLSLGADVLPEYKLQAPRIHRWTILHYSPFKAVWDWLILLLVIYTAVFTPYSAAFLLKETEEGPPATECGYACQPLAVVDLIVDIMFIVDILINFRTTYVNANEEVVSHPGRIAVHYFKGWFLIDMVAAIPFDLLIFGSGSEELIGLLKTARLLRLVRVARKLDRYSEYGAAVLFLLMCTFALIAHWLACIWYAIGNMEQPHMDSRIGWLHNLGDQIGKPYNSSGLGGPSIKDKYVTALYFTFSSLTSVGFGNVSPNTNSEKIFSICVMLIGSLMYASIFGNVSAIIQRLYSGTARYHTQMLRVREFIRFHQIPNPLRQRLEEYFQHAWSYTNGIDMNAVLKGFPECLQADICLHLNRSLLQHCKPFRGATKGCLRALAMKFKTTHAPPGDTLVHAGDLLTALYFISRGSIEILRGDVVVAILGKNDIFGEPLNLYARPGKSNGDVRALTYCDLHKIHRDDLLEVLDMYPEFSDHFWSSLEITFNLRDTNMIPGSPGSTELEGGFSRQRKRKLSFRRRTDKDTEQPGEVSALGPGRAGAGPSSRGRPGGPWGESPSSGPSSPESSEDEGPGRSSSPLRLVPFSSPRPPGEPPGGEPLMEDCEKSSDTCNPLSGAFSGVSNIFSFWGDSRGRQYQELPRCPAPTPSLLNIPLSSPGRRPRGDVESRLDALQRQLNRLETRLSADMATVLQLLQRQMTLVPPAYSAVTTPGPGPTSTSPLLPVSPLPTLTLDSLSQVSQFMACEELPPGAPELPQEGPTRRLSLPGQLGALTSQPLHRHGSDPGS
Sequence of UniProt P03372 (P03372 whole entry, looked up): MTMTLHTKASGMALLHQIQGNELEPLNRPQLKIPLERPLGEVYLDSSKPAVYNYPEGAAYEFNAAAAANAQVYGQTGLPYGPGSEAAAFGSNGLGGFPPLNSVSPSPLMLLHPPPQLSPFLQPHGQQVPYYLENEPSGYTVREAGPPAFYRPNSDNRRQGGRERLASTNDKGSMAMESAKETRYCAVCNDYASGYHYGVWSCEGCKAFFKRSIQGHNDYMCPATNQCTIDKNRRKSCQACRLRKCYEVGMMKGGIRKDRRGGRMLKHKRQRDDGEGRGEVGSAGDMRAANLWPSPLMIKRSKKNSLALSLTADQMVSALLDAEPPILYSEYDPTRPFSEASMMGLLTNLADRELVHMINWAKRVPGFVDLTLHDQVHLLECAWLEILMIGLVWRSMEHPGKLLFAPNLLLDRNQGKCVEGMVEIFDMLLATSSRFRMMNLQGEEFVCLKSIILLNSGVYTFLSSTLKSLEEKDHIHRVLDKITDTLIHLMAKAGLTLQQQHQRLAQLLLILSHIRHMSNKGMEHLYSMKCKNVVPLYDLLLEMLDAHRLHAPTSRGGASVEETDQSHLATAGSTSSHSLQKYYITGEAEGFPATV

CC(C)=CCC/C(C)=C/C=N/O
Potency [1]: inactive | Potency [2]: inconclusive [activator, single point] | Potency [3]: inconclusive [cytotoxic, partial curve, poor fit] | Potency [4]: inactive | Potency [5]: inconclusive [cytotoxic, partial curve, poor fit]

Cc1cccc(Cl)c1
Potency [6]: inactive

CC1CC(=O)CC(C)(C)C1 (centres undefined)
Potency [3]: inactive

Nc1cc(N)cc(C(=O)O)c1
Potency [7]: inactive | Potency [8]: inconclusive [falling, partial curve, poor fit]

CCC(=O)OC(C)c1ccccc1 (centres undefined)
Potency [9]: inactive | Potency [10]: inactive

CCCCCOC(=O)COc1cc(N2C(=O)C3=C(CCCC3)C2=O)c(F)cc1Cl
Potency [6]: inconclusive [cytotoxic, partial curve, poor fit] | Potency [11]: inconclusive [inhibitor, partial curve]

CCO
Potency [12]: inactive | Potency [13]: inactive | Potency [4]: inactive

CN1CCN(C(=O)C2CCCCC2)CC1
Potency [13]: inactive | Potency [14]: inactive

NC(=O)c1ncn([C@@H]2O[C@H](CO)[C@@H](O)[C@H]2O)c1O
Potency [15]: inconclusive [activator, partial curve, poor fit] | Potency [2]: inconclusive [activator, partial curve]

C=Cc1ccc(C(C)(C)C)cc1
viability change, negative = cytotoxic [1]: inconclusive: 6.67% | Potency [8]: inactive | Potency [6]: inactive | Potency [16]: inactive

SC1CCCC1
Potency [4]: inactive | Potency [16]: inactive

CC(C)(C)C(=O)/C=C/c1ccc(Cl)cc1
Potency [7]: inactive | Potency [17]: inconclusive [rising, partial curve, poor fit] | Potency [11]: inconclusive [inhibitor, partial curve]

O=c1[nH]c(=O)c2ccccc2o1
Potency [12]: inconclusive [rising, partial curve] | Potency [4]: inconclusive [activator]

CCOC(=N)CC(=O)OCC
Potency [17]: inactive | Potency [3]: inconclusive [cytotoxic, partial curve, poor fit] | Potency [5]: inconclusive [cytotoxic, partial curve] | Potency [10]: inactive

CCCCCC(=O)CC
Potency [11]: inactive

CCCCCCCCCCCC(=O)OCC
Potency [9]: inactive

CC(C)c1cc(C(C)C)cc(C(C)C)c1
Potency [17]: inactive

CO[Si](C)(OC)c1ccccc1
Potency [13]: inactive | Potency [2]: inactive | Potency [5]: inactive

CCc1nccnc1CC
cytotoxicity increase [15]: inactive: 0.942% [at 15.8 µM]

O=S(=O)(O)c1cc(O)c(O)c(S(=O)(=O)O)c1
Potency [12]: inactive | Potency [18]: inconclusive [cytotoxic, single point] | Potency [16]: inactive

O=C(O)CCCl
Potency [1]: inconclusive [rising, full curve, poor fit]

CN(C)N=Nc1ccccc1
Potency [8]: inactive

O=C1CCC(=O)N1
Potency [14]: inconclusive [cytotoxic, single point] | Potency [19]: inconclusive [cytotoxic, single point] | Potency [3]: inconclusive [cytotoxic, single point]

O=C1CCC(N2C(=O)c3ccccc3C2=O)C(=O)N1 (centres undefined)
Potency [10]: inactive | Potency [6]: inactive

Brc1ccc(-c2ccccc2)cc1
Potency [13]: inactive | Potency [8]: inconclusive [falling, partial curve, poor fit]
